Source: patent publication US20110135573A1, “METALLOPROTEINASE 9 AND METALLOPROTEINASE 2 BINDING PROTEINS” (DYAX CORP., priority 2009, published 2011)

Assays:
Assay in all cases: Enzyme inhibition assay (single point inhibition, IC50/Ki,app), substrate M-2350
Format in all cases: biochemical
Conditions in all cases: light chain shuffled antibodies
MMP-9 = MMP-9 (Homo sapiens, UniProt P14780); design: Human MMP-9 catalytic domain (BIOMOL, SE-244); purchased BIOMOL SE-244
Protocol: 343 unique sFabs from the anti-MMP-9/-2 M237-D02 affinity maturation campaign were discovered by phage display, produced in small scale (6 mL cultures in deep 24-well plates) and screened to select inhibitors with sub-nanomolar potency against the human enzymes and at least single-digit nanomolar potency toward the mouse orthologues. […] Isolates which appeared potent against both human and mouse MMP-2 were then subjected to IC50 analysis against hMMP-9. Sub-nanomolar inhibitors of hMMP-9 were further tested by IC50 analysis against mMMP-9 and h/m MMP-2, if sufficient small-scale sFab material was available. […]
(§1) Human MMP-9 (Biomol #SE-244), mouse MMP-9 (R&D Systems #909-MM-010), human MMP-2 (Biomol #SE-237) and mouse MMP-2 (R&D Systems #924-MP-010) were tested at final concentrations of 1 nM, 0.25-0.4 nM, 2.5 nM and 0.2 nM, respectively. […] Reactions were initiated by the addition of 10 μL of a 10× concentrated stock of substrate, Mca-Lys-Pro-Leu-Gly-Leu-Dap(Dnp)-Ala-Arg-NH2, (Bachem M-2350), at final concentration of 10 μM and monitored at 30° C. in a Molecular Devices' Gemini fluorescence plate reader. […] Kinetic data were acquired by the increase in fluorescence, and initial rates for each condition were plotted against the total inhibitor concentration. […]

mouse MMP-2 = target: T1, mouse MMP-2 (Mus musculus, UniProt P33434)
T1 construct: purchased R&D Systems 924-MP-010
T1 sequence (P33434 110-662): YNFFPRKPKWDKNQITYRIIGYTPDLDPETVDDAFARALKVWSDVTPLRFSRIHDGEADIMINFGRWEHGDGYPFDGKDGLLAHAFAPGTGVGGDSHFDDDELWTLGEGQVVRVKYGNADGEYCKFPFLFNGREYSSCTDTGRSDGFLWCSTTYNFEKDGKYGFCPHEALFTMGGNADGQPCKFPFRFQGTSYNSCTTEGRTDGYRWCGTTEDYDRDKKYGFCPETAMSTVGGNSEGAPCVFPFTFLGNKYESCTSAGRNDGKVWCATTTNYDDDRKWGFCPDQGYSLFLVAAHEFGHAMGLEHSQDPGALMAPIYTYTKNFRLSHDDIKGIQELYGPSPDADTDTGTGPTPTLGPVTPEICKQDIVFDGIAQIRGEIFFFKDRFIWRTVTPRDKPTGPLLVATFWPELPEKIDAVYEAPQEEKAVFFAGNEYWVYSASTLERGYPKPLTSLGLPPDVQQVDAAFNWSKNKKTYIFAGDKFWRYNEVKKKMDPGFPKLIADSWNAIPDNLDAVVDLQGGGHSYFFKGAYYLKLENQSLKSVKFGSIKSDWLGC
Protocol: (§2) 343 unique sFabs from the anti-MMP-9/-2 M237-D02 affinity maturation campaign were discovered by phage display, produced in small scale (6 mL cultures in deep 24-well plates) and screened to select inhibitors with sub-nanomolar potency against the human enzymes and at least single-digit nanomolar potency toward the mouse orthologues. […] Isolates which appeared potent against both human and mouse MMP-2 were then subjected to IC50 analysis against hMMP-9. Sub-nanomolar inhibitors of hMMP-9 were further tested by IC50 analysis against mMMP-9 and h/m MMP-2, if sufficient small-scale sFab material was available. Thirteen potential h/m MMP-9/-2 sFab inhibitors were then produced in medium scale (250 mL cultures in flasks) and retested for h/m MMP-9 and h/m MMP-2 inhibition. Five potential lead candidates were reformatted as IgGs and retested in enzyme inhibition assays.
as §1, with “respectively. Target enzymes were incubated with inhibitor for two hours at 30° C. in reaction buffer (50 mM Tris-HCl pH 7.5, 150 mM NaCl, 5 mM CaCl2, 0.05% Brij-35) in a total volume of 90 μL using a white 96 well plate (Costar). Reactions contained 5 μL of small-scale sFab stock solution (average concentration of 500 nM) for single point inhibition analysis or a concentration series of sFab/IgG for IC50 Ki,app determinations.” for “respectively.”

human MMP-2 = target: T2, human MMP-2 (Homo sapiens, UniProt P08253)
T2 construct: purchased Biomol SE-237
T2 sequence (P08253 110-446 limits assumed): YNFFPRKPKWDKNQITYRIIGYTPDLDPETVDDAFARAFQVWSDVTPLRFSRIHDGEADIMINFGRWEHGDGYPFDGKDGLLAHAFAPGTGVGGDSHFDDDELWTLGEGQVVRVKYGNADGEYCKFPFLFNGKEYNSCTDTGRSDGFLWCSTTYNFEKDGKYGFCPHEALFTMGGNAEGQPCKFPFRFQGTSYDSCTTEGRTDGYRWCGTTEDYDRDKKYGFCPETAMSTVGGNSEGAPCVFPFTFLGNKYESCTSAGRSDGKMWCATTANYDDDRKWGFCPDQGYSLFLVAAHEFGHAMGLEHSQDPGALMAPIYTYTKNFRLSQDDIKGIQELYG
Protocol: as §2
as §1, with “respectively. Target enzymes were incubated with inhibitor for two hours at 30° C. in reaction buffer (50 mM Tris-HCl pH 7.5, 150 mM NaCl, 5 mM CaCl2, 0.05% Brij-35) in a total volume of 90 μL using a white 96 well plate (Costar). Reactions contained 5 μL of small-scale sFab stock solution (average concentration of 500 nM) for single point inhibition analysis or a concentration series of sFab/IgG for IC50 Ki,app determinations.” for “respectively.”

Mouse MMP-9 = target: T3, Mouse MMP-9 (Mus musculus, UniProt P41245)
T3 construct: purchased R&D Systems 909-MM (909-MM-010)
T3 sequence (P41245 108-730): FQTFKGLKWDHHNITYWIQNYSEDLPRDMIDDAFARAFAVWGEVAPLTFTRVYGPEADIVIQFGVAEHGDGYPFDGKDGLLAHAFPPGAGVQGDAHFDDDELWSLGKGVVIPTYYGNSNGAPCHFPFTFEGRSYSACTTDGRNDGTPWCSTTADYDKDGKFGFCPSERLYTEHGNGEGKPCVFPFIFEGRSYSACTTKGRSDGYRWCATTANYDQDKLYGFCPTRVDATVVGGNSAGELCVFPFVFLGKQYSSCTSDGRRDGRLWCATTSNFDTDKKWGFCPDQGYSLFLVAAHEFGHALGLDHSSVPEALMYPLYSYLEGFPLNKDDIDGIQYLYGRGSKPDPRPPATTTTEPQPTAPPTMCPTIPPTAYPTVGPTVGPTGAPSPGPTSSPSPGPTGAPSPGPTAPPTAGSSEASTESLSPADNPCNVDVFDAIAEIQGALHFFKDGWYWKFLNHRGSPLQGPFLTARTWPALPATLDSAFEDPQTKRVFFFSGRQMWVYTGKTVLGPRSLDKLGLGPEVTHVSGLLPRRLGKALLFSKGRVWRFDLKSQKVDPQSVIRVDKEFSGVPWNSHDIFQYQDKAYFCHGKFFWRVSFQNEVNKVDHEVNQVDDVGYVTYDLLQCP
Protocol: as §2
as §1, with “respectively. Target enzymes were incubated with inhibitor for two hours at 30° C. in reaction buffer (50 mM Tris-HCl pH 7.5, 150 mM NaCl, 5 mM CaCl2, 0.05% Brij-35) in a total volume of 90 μL using a white 96 well plate (Costar). Reactions contained 5 μL of small-scale sFab stock solution (average concentration of 500 nM) for single point inhibition analysis or a concentration series of sFab/IgG for IC50 Ki,app determinations.” for “respectively.”

UniProt P14780, sequence (P14780 107-444 limits assumed): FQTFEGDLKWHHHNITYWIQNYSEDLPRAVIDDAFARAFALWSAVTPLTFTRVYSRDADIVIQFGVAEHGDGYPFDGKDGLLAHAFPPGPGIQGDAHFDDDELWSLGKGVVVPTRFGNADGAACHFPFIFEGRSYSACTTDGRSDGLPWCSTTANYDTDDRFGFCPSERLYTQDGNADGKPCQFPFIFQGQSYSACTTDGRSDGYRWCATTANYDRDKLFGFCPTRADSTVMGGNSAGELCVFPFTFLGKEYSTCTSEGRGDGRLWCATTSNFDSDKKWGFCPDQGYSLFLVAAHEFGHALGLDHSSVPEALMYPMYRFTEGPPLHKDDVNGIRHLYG

inhibition of human MMP-9 (in words) (MMP-9): bind and inhibit
inhibition of mouse MMP-2 (in words) (mouse MMP-2): do not inhibit
inhibition of human MMP-2 (in words) (human MMP-2): do not inhibit
inhibition of mouse MMP-9 (in words) (Mouse MMP-9): bind and inhibit
B1: M0279-B02: MMP-9 specific antibody from light chain shuffling of M237-D02, sFab (antibody, V domains shown)
VH: EVQLLESGGGLVQPGGSLRLSCAASGFTFSQYPMWWVRQAPGKGLEWVSYIVPSGGRTYYADSVKGRFTISRDNSKNTLYLQMNSLRAEDTAVYYCAKDRAYGDYVGWNGFDYWGQGTLVTVSS
VL: QDIQMTQSPATLSVSPGERATLSCRASQSVSSNLAWYQQKPGQAPRLLIYGASTRATGIPARFSGSGSGTEFTLTISSLQSEDFAVYYCQQRRNWPVTFGQGTRLEII
